In the supplement of paper PMC3334620:
Over roughly 33,000 sequences, “E-score (-0.5 to 0.5)” has its median near -0.056; the highest 2% begin near 0.38. The list shows a part of the results.

biological target: Stb4 (UniProt P50104); experiment: PBM E-score (8-mer binding enrichment) (E-score (-0.5 to 0.5)); higher = stronger / more preferred TF binding; most listed sequences are background and not binding sites; conditions: protein concentration: 200 nM; construct: GST-DNA-binding domain
In short: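 Yeast transcription factors carrying a GST tag, as full-length proteins or DNA-binding domains, were produced by PURExpress in vitro transcription/translation. About 100-200 nM protein was applied to universal all-10-mer Agilent arrays, double-stranded by primer extension on fresh or once-stripped slides. Bound protein was detected with fluorescent anti-GST, and scans were normalised with masliner. The Universal PBM Analysis Suite gave each ungapped eight-base word, pooled with its reverse complement, an E-score, a modified Wilcoxon-Mann-Whitney statistic.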

| Sequence | PBM E-score |
| --- | --- |
| ACAACCAA | -0.198 |
| GAGCATAC | -0.0688 |
| AAAGCTTA | -0.261 |
| AGTCCCAC | -0.093 |
| CGAATTCC | 0.267 |
| ATGCAATA | -0.244 |
| TCACTTCA | -0.184 |
| GCAACAAC | -0.137 |
| CGAAATAA | 0.276 |
| CTGGTAAG | -0.136 |
| ACATATTA | -0.0926 |
| AGGTTTGA | -0.1 |
| AAGAGGAA | -0.184 |
| ATGTGTGG | -0.018 |
| GATGCGCA | -0.047 |
| GGCGGTAC | 0.0184 |
| TCAGCGCA | -0.0691 |
| TCTCTCAA | -0.0933 |
| AGACAACA | -0.121 |
| ACAAATAT | 0.112 |
| GGAGCGTA | 0.0909 |
| ATTAGTCC | 0.124 |
| AAGACACC | 0.077 |
| AAACTAAC | 0.0734 |
| ACTCGTTA | -0.0258 |

| Sequence | PBM E-score |
| --- | --- |
| ATCGTCAT | -0.231 |
| CACTAACA | -0.107 |
| ACACGAAC | -0.0584 |
| CGTTTCAC | 0.00258 |
| CCTTCAAC | -0.111 |
| CCCGTACG | 0.0714 |
| ACGACTGG | -0.0301 |
| CCTGCCTC | -0.0255 |
| CGGGGCAA | 0.13 |
| CTAGAATC | 0.0279 |
| GCTTGGCC | 0.0648 |
| CTGTCACC | 0.0195 |
| CTTTAAAG | -0.158 |
| CATGTCAG | -0.172 |
| GAAGCCTA | 0.117 |
| AGTTGACG | -0.097 |
| AGTGAGCC | -0.0295 |
| GATCAAAC | -0.0711 |
| CATCACTC | 0.0169 |
| TCAGCCCA | -0.11 |
| CGGACACA | 0.134 |
| ACCGAAGT | 0.293 |
| GGGAGGAC | -0.0397 |
| ATGCCTCC | -0.134 |
| CCCTCAGA | -0.349 |

| Sequence | PBM E-score |
| --- | --- |
| AATAGTCC | -0.00049 |
| GAACCCCC | -0.0505 |
| AGACTATA | -0.0872 |
| AATTTCCT | -0.0502 |
| CAGGATCC | 0.0418 |
| TTAGAGAA | -0.144 |
| CACGGACG | 0.0862 |
| CGCTTGCC | 0.0497 |
| CAATTAAA | -0.0683 |
| CGACGTCA | -0.0255 |
| AGTAAACC | 0.062 |
| CATAATAC | -0.185 |
| ATTCTAGC | -0.0577 |
| CAGATATG | -0.0664 |
| TCAAAGAA | -0.305 |
| GTGGGTTA | -0.122 |
| ATACTAAT | -0.00279 |
| GCATTGGA | -0.0208 |
| GCCATGCC | 0.0341 |
| GAAGGGTA | 0.146 |
| GATCTTGA | -0.0297 |
| CCAACAAC | -0.117 |
| AAGCGCCG | 0.252 |
| GGACGAAA | 0.118 |
| CCTCTACA | -0.25 |

| Sequence | PBM E-score |
| --- | --- |
| AAAGTTGA | -0.11 |
| ATGTTTGG | -0.0983 |
| AGGCTCAC | -0.103 |
| AGCATTTC | -0.0674 |
| CACTTAAA | -0.0891 |
| CTTCGGAA | 0.485 |
| GACCCCCC | -0.0614 |
| ATACTTCG | 0.257 |
| TAAAAGCA | 0.208 |
| AGGCCACC | -0.174 |
| TCTTGGAA | -0.111 |
| AGAATAAT | -0.0947 |
| AGCCGACA | 0.277 |
| CTATCTCC | -0.111 |
| CGGTGATC | 0.115 |
| TGAACGCA | -0.149 |
| AATCTTCG | 0.0638 |
| AATCCTCC | 0.118 |
| ACGGCTGA | 0.0101 |
| CCTTCTTC | -0.0936 |
| AGCGACAC | -0.138 |
| AACTGTCG | -0.0418 |
| CATTACGC | 0.116 |
| ATGTGGGC | -0.0588 |
| CACAGCTA | -0.0955 |

| Sequence | PBM E-score |
| --- | --- |
| ACGGACGG | 0.142 |
| CGATAGGA | 0.0095 |
| GCTCCAGA | -0.0863 |
| AATCCCAC | 0.0491 |
| CGTCGCCC | -0.0819 |
| CCCCAGCC | -0.107 |
| ATAAGCAT | -0.0982 |
| CAGGTGGG | -0.0585 |
| CAAGATAC | -0.185 |
| ATGGAAGA | -0.0187 |
| ATGTATAA | -0.0161 |
| AAGCGATG | -0.195 |
| GGAGATTA | 0.0261 |
| GAAAACAA | 0.0824 |
| TGGGCCAA | -0.0827 |
| GCTGGGAA | 0.0669 |
| ATCTCTCA | -0.0705 |
| TAAGTGTA | -0.148 |
| CGCACCCC | 0.0164 |
| TTAGCCAA | -0.159 |
| TAACAGAA | -0.117 |
| CGTTCGCA | -0.255 |
| CCGGGTAG | 0.355 |
| CGTAACGA | -0.192 |
| ACTGCGGC | 0.0711 |

| Sequence | PBM E-score |
| --- | --- |
| CATTTTGA | -0.162 |
| CGCTTAAA | -0.0775 |
| CGACCCCG | 0.217 |
| AGACTACG | -0.146 |
| GCATACAC | 0.0295 |
| AAATATAG | -0.0277 |
| GAGGCTCA | -0.22 |
| CCTTTATC | -0.0418 |
| CTCCCAGC | -0.0979 |
| TAAGGATA | 0.00463 |
| ATTATTCA | -0.0678 |
| ACGGCCAC | -0.0623 |
| ATGGTTGA | -0.127 |
| CACAACTA | 0.0556 |
| CTCACAAA | 0.0299 |
| CGCGTGGC | -0.0796 |
| AATTCAGG | -0.0525 |
| GGTGCTAA | -0.0165 |
| AATCAATG | 0.034 |
| AATCTACG | 0.0182 |
| GTGTGAGA | -0.196 |
| CAGTGTAC | -0.0701 |
| TAACAATA | -0.0588 |
| CGGAATAG | 0.357 |
| TATCTTCA | -0.189 |

| Sequence | PBM E-score |
| --- | --- |
| CGGTTGCC | 0.243 |
| AATGTTAG | -0.0387 |
| GCTCCTGA | -0.0055 |
| CACAAGCG | -0.223 |
| GAGAGAAC | -0.132 |
| ACTGGAAT | -0.142 |
| CGCAGGGC | -0.0286 |
| CCGTTCCA | 0.183 |
| TCTGACAA | -0.0896 |
| CGCAACTA | 0.0471 |
| AGCTATTA | -0.136 |
| GAAGGCGC | -0.185 |
| ATAATTCA | -0.045 |
| GAGCCTAA | -0.0415 |
| CGTTAACG | 0.0456 |
| TGCCGTAA | 0.0829 |
| CAAGAACC | -0.0737 |
| AGAGTGTG | -0.111 |
| ACAGTTAG | -0.171 |
| GACTCGTA | -0.1 |
| ACACATAG | -0.244 |
| CACTATGG | -0.127 |
